No constants are given. Whether binding was seen depends on the method and setting. In cells and extracts the contact can be indirect. Some results given as binding are weak or reduced against the parent protein; the word gives no strength. Tags and fused reporters may be left off the sequences shown.

In test [1] the target is T1, Flag-tagged full-length USP36 (wild-type) (UniProt Q9P275).
T1 sequence: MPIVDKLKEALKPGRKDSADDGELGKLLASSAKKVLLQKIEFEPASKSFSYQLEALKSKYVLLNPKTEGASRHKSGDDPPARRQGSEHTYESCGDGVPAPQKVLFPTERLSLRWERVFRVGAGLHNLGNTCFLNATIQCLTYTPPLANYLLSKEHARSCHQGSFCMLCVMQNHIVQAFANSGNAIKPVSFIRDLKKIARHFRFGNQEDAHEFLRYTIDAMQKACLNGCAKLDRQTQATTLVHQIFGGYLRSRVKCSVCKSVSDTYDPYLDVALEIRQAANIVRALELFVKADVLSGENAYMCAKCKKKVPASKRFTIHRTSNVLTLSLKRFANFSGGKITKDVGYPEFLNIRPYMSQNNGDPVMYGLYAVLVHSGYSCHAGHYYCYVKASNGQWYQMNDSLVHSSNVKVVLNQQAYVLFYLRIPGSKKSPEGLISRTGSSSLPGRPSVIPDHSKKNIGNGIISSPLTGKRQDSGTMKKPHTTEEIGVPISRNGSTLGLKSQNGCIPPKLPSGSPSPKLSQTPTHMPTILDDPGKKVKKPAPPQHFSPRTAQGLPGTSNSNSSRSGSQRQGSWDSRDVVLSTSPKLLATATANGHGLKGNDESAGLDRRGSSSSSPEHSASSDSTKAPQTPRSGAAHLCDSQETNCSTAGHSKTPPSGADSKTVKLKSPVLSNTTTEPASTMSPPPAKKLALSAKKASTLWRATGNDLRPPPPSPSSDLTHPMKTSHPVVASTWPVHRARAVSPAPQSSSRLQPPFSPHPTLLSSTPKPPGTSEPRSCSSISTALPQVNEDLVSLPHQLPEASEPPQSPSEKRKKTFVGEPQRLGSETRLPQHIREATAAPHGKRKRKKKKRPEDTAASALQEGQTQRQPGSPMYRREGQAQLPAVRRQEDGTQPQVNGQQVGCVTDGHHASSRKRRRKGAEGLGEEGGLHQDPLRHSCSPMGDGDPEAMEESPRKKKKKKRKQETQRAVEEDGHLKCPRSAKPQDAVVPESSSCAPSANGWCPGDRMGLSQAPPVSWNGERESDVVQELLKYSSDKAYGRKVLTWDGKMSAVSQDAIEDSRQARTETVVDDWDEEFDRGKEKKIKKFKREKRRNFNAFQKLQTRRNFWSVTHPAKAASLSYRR
Nature of the test: co-IP; H1299 cells co-transfected with a Flag-tagged and a V5-tagged protein; NP40 lysis buffer (50 mmol/L Tris-HCl pH 8.0, 0.5% NP-40, 1 mmol/L EDTA, 150 mmol/L NaCl); IP with anti-Flag antibody, immunoblot.

The target in test [2] is T2, Flag-USP36 deletion mutant, N-terminal USP domain containing region (amino acids 1-420) (UniProt Q9P275).
T2 sequence: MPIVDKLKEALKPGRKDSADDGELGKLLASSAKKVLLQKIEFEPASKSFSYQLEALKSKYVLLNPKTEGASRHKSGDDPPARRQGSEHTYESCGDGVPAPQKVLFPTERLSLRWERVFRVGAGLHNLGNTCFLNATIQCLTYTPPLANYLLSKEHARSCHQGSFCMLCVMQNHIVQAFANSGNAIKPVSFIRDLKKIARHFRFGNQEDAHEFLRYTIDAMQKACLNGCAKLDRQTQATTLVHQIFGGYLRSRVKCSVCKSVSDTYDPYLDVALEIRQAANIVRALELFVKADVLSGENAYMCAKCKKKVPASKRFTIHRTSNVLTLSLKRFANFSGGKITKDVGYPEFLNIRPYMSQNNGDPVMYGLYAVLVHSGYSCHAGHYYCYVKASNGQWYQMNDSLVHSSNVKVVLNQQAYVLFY
The description is as above.

The target in test [3] is T3, Flag-USP36 deletion mutant, C-terminal nucleolar localization signal containing region (aa 801-1121) (UniProt Q9P275).
T3 sequence: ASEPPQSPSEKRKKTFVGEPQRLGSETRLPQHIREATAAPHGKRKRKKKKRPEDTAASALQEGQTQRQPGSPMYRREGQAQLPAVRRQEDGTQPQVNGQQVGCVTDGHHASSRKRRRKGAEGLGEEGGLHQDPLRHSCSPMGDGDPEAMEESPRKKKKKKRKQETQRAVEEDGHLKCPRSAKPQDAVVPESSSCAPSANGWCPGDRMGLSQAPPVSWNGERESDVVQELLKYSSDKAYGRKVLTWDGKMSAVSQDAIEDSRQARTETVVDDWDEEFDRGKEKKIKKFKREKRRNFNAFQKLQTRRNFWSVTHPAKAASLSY
The test is described as above.

Test [4] deals with T1, Flag-tagged full-length USP36 (wild-type). Nature of the test: co-IP; 293 cells transfected with Flag-USP36 together with scr control, Drosha siRNA or DGCR8 siRNA (single siRNA or pool); IP with anti-Flag antibody, immunoblot.
For test [5] the target is unchanged. Description: co-IP; H1299 cells transfected with Flag-USP36 or control; IP with anti-Flag antibody, immunoblot for endogenous DGCR8 and Drosha.

B1: V5-Drosha (enzyme, UniProt Q9NRR4 1-1374)
chain: MMQGNTCHRMSFHPGRGCPRGRGGHGARPSAPSFRPQNLRLLHPQQPPVQYQYEPPSAPSTTFSNSPAPNFLPPRPDFVPFPPPMPPSAQGPLPPCPIRPPFPNHQMRHPFPVPPCFPPMPPPMPCPNNPPVPGAPPGQGTFPFMMPPPSMPHPPPPPVMPQQVNYQYPPGYSHHNFPPPSFNSFQNNPSSFLPSANNSSSPHFRHLPPYPLPKAPSERRSPERLKHYDDHRHRDHSHGRGERHRSLDRRERGRSPDRRRQDSRYRSDYDRGRTPSRHRSYERSRERERERHRHRDNRRSPSLERSYKKEYKRSGRSYGLSVVPEPAGCTPELPGEIIKNTDSWAPPLEIVNHRSPSREKKRARWEEEKDRWSDNQSSGKDKNYTSIKEKEPEETMPDKNEEEEEELLKPVWIRCTHSENYYSSDPMDQVGDSTVVGTSRLRDLYDKFEEELGSRQEKAKAARPPWEPPKTKLDEDLESSSESECESDEDSTCSSSSDSEVFDVIAEIKRKKAHPDRLHDELWYNDPGQMNDGPLCKCSAKARRTGIRHSIYPGEEAIKPCRPMTNNAGRLFHYRITVSPPTNFLTDRPTVIEYDDHEYIFEGFSMFAHAPLTNIPLCKVIRFNIDYTIHFIEEMMPENFCVKGLELFSLFLFRDILELYDWNLKGPLFEDSPPCCPRFHFMPRFVRFLPDGGKEVLSMHQILLYLLRCSKALVPEEEIANMLQWEELEWQKYAEECKGMIVTNPGTKPSSVRIDQLDREQFNPDVITFPIIVHFGIRPAQLSYAGDPQYQKLWKSYVKLRHLLANSPKVKQTDKQKLAQREEALQKIRQKNTMRREVTVELSSQGFWKTGIRSDVCQHAMMLPVLTHHIRYHQCLMHLDKLIGYTFQDRCLLQLAMTHPSHHLNFGMNPDHARNSLSNCGIRQPKYGDRKVHHMHMRKKGINTLINIMSRLGQDDPTPSRINHNERLEFLGDAVVEFLTSVHLYYLFPSLEEGGLATYRTAIVQNQHLAMLAKKLELDRFMLYAHGPDLCRESDLRHAMANCFEALIGAVYLEGSLEEAKQLFGRLLFNDPDLREVWLNYPLHPLQLQEPNTDRQLIETSPVLQKLTEFEEAIGVIFTHVRLLARAFTLRTVGFNHLTLGHNQRMEFLGDSIMQLVATEYLFIHFPDHHEGHLTLLRSSLVNNRTQAKVAEELGMQEYAITNDKTKRPVALRTKTLADLLESFIAALYIDKDLEYVHTFMNVCFFPRLKEFILNQDWNDPKSQLQQCCLTLRTEGKEPDIPLYKTLQTVGPSHARTYTVAVYFKGERIGCGKGPSIQQAEMGAAMDALEKYNFPQMAHQKRFIERKYRQELKEMRWEREHQEREPDETEDIKK
B1: the binding result in test [1], in test [2] and in test [3] was “binds” each time.

B2: endogenous Drosha (enzyme, UniProt Q9NRR4 1-1374)
chain: B1 chain
As to B2, the binding entry in test [4] and in test [5] was “binds” throughout.

B3: endogenous DGCR8 (protein, UniProt Q8WYQ5 1-773)
chain: METDESPSPLPCGPAGEAVMESRARPFQALPREQSPPPPLQTSSGAEVMDVGSGGDGQSELPAEDPFNFYGASLLSKGSFSKGRLLIDPNCSGHSPRTARHAPAVRKFSPDLKLLKDVKISVSFTESCRSKDRKVLYTGAERDVRAECGLLLSPVSGDVHACPFGGSVGDGVGIGGESADKKDEENELDQEKRVEYAVLDELEDFTDNLELDEEGAGGFTAKAIVQRDRVDEEALNFPYEDDFDNDVDALLEEGLCAPKKRRTEEKYGGDSDHPSDGETSVQPMMTKIKTVLKSRGRPPTEPLPDGWIMTFHNSGVPVYLHRESRVVTWSRPYFLGTGSIRKHDPPLSSIPCLHYKKMKDNEEREQSSDLTPSGDVSPVKPLSRSAELEFPLDEPDSMGADPGPPDEKDPLGAEAAPGALGQVKAKVEVCKDESVDLEEFRSYLEKRFDFEQVTVKKFRTWAERRQFNREMKRKQAESERPILPANQKLITLSVQDAPTKKEFVINPNGKSEVCILHEYMQRVLKVRPVYNFFECENPSEPFGASVTIDGVTYGSGTASSKKLAKNKAARATLEILIPDFVKQTSEEKPKDSEELEYFNHISIEDSRVYELTSKAGLLSPYQILHECLKRNHGMGDTSIKFEVVPGKNQKSEYVMACGKHTVRGWCKNKRVGKQLASQKILQLLHPHVKNWGSLLRMYGRESSKMVKQETSDKSVIELQQYAKKNKPNLHILSKLQEEMKRLAEEREETRKKPKMSIVASAQPGGEPLCTVDV
Turning to B3, the binding entry in test [4] and in test [5] was “binds” in each case.

The values are drawn from publication PMC10026737.
